From the supplement of paper PMC3334620
Over roughly 33,000 sequences, “E-score (-0.5 to 0.5)” has its median near -0.043; the highest 2% begin near 0.37. The list shows a part of the results.

molecular target: T1, Upc2 (UniProt Q12151); assay: PBM E-score (8-mer binding enrichment) (E-score (-0.5 to 0.5)); higher = stronger / more preferred TF binding; most listed sequences are background and not binding sites; conditions: protein concentration: 200 nM; construct: GST-full length
T1 sequence: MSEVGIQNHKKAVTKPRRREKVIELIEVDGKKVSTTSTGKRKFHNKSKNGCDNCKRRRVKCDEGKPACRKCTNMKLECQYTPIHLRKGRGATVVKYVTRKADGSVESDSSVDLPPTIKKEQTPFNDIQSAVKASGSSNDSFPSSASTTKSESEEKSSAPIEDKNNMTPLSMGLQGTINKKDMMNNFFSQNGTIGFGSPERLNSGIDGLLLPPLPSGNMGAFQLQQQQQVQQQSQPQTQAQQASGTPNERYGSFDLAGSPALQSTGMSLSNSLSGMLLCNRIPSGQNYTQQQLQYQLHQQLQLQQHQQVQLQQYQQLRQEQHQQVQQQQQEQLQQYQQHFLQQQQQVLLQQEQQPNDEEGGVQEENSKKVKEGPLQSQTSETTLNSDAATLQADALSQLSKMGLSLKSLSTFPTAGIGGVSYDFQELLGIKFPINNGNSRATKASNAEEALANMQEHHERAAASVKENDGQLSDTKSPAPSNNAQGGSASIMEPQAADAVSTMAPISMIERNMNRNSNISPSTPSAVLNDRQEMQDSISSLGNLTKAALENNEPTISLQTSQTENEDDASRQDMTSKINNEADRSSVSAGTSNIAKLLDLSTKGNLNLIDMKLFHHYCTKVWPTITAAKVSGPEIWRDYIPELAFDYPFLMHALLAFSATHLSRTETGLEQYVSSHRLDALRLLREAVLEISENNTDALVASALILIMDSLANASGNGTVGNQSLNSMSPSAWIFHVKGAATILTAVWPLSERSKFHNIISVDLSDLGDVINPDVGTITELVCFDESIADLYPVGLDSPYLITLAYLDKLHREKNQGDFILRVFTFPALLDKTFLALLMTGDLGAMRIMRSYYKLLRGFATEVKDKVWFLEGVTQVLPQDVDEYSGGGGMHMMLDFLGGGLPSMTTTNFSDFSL
How it was run: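 Detection of bound protein used fluorescent anti-GST, with scans normalised by masliner. The proteins were GST-tagged yeast transcription factors applied at about 100-200 nM to universal all-10-mer Agilent arrays made double-stranded by primer extension. Each ungapped eight-base word, pooled with its reverse complement, was scored with an E-score from the Universal PBM Analysis Suite.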

Sequence	PBM E-score
ACGCTCCA	0.0069
TCTCCGAA	-0.0693
AACATACC	0.16
AGATTGAA	-0.024
TCATACCA	-0.0495
ACAGGATA	0.137
CGTAGGCA	0.0401
AATGGCTC	-0.0554
CCACAATA	-0.13
CTAATTGA	-0.105
GCAATCGC	0.0134
ATTGTCTA	0.157
ATCTGATA	-0.215
GCATACCC	-0.14
CTCTGCCA	-0.155
CTCGGACA	0.163
CCTAACTC	-0.0793
CAAACGTC	0.197
GCTCGTTA	0.39
ATAACAAC	0.168
ATATTAAC	0.17
ATAAACCA	0.0435
ATCGCCTC	0.0449
ACTGCCGG	-0.168
AAAGTATC	0.0733

Sequence	PBM E-score
GGGATGAA	-0.326
AAAACTTC	0.0711
AGTGCTTC	-0.0516
GAAGGTGA	-0.156
ACTACTGA	-0.0395
AGCATTAC	-0.00984
GAGGCATA	-0.0312
CATTTCAA	-0.00511
GCTGGAAA	-0.214
TGCCTGAA	-0.0575
AATCTCCG	-0.231
AGGAATAG	-0.169
CTCGGCCC	-0.0606
ACTCACAG	-0.238
CTCCGATC	-0.115
AAGGCCGA	-0.146
ACCTACGC	-0.0542
AGCTGACC	-0.287
CGCGAACG	0.343
GAATAGGC	-0.117
CGGCCTCC	-0.0926
AAACGATC	0.447
AGGGCACA	-0.113
GATCCTCA	-0.0157
AGCATGAT	-0.239

Sequence	PBM E-score
GGGATCCC	-0.0327
CAGTCTCA	-0.197
ATGCCAGC	-0.274
AGTAACAT	-0.0683
ATGGACGC	-0.084
AGACGTAG	-0.0671
ACAAATCT	0.0248
ATACCATG	0.122
AGGAATAA	-0.0267
CCGATTTA	0.0459
ACCTAAGA	0.0242
ATTGGAAG	-0.198
GCACAATA	-0.0363
GATGCGAA	0.208
ATGTATCC	-0.153
ACCCTGCC	-0.246
GGCTCGCA	0.17
CAGATTGA	-0.139
CAATAGTG	-0.167
GGTGGAGA	-0.233
CTGGTGAC	-0.0738
GGAAAGCA	0.0137
CGACTTAA	0.0813
CGAACTGC	0.0104
AGAAACTG	-0.0203

Sequence	PBM E-score
GGCAATAA	-0.145
CTCCTGCC	-0.339
TGTCGAAA	-0.0598
AGTAAGGG	-0.189
ATCTAGTG	-0.00112
CATCCGTA	0.309
CACACGTG	-0.154
GAGCACCA	-0.0195
CCGCCAAG	-0.0988
CGCCTGGC	-0.106
ACAAGACG	-0.0578
AGGGGTGG	-0.046
GATCAAGC	0.159
CAAGACTG	-0.248
AAACCGCT	0.0158
ACATGGTC	-0.122
CCTGAGCC	-0.329
AGTTTAAT	0.0342
TCTTGGCA	-0.0579
AATCTAAG	0.0399
AAACGAGC	0.489
ACACGTCT	-0.205
ATTCACCA	-0.155
CTTGTACA	-0.0692
CTACACCA	-0.117

Sequence	PBM E-score
CCAACATC	-0.0625
CCCAGAAA	0.0131
GGGCAAAC	-0.0772
TAGCCGGA	0.00437
ACGTGTGG	-0.22
CTCGGCAC	-0.0884
CGTTCTGC	0.234
ACCAAGCC	-0.167
AGTTGTGG	-0.0247
AAGGCTAC	-0.189
CCAAGCTA	-0.182
AAATAGAG	-0.128
CGGGAACA	0.184
AACGACAG	0.419
GACGCCAA	-0.0565
GAAGAGTA	0.0847
CATTCGTC	0.0696
GGTTGGCA	-0.0111
CTAAGTCA	-0.2
CTACGTGA	0.0211
CCCAACTA	-0.0803
CCCGAGAG	-0.0376
AATTCGCC	0.00468
ATAGCTGC	-0.0817
GCGGGCAA	-0.0677

Sequence	PBM E-score
AGCATATC	-0.146
GCGTTTGA	0.151
AATATTGT	0.0557
AATCTAAC	0.0176
TAACCATA	0.0159
ACTACGTA	0.228
ACACCATA	0.139
CCCATCTA	-0.214
ATGATCCA	-0.188
GTAGATGA	0.0175
TGGATCCA	-0.13
GGCGAAAC	-0.0721
GATCCCAC	-0.111
ATTTGCGC	0.024
AATCTTAG	-0.176
AGTGTTAT	-0.032
AAAGAGGG	0.038
AGCGCTAC	0.0662
CTGCCATA	0.0818
AACCATAC	0.146
TGACTACA	0.0705
CAACTGCG	-0.0371
CTCCCTCC	-0.294
GAGCAAAA	-0.0717
CACTACGC	-0.169

Sequence	PBM E-score
ATCCAGGA	-0.263
AGATACTA	-0.151
AGGCCCTA	-0.156
GAACAGCC	-0.0262
ACATTCGG	0.0333
CACTTGGA	-0.0876
AGAGTCAC	-0.201
ACTAGTAA	-0.109
CAGGTAGG	-0.18
CGAAAACC	0.153
AATATTAT	-0.0085
CGTTAACC	0.348
GACTGAAA	0.031
AGCCATCA	0.00417
GAGAAAGA	-0.0168
TCTAGGAA	-0.194
GGAAGGAA	-0.049
AGTCCCTC	-0.125
ACTCCGTC	-0.0313
GCCCGAAC	0.00648
AGCTAGCC	-0.128
CCTCAACC	-0.0925
